# Screen size: about 39,000 compounds; about 220 (0.56%) showed activity. The list shows a part of the results.
# Test system: Escherichia coli K-12 BW25113
# Assay: relative growth (OD600 normalised to plate interquartile mean) (fraction); higher = less growth inhibition, active = 0.2 or less
# Conditions: 50 µM; LB; incubation time: overnight (16-24 h)
# 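Note: static incubation at 37 °C against the wild-type strain, values averaged over two biological replicates.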
row,Compound,relative growth
1,COCCNC(=O)C[C@H]1CC[C@H]2[C@@H](COc3ccc(NC(=O)Nc4cccc(F)c4)cc3C(=O)N2C)O1,inactive: 0.975
2,CO[C@@H]1CN(C)C(=O)c2cc(NC(=O)Nc3ccccc3F)ccc2OC[C@@H](C)N(Cc2ccccc2F)C[C@H]1C,inactive: 1.03
3,CO[C@H]1CN(C)C(=O)c2cc(NS(=O)(=O)c3ccccc3C)ccc2OC[C@@H](C)N(S(C)(=O)=O)C[C@@H]1C,inactive: 0.999
4,C[C@@H]1CN([C@H](C)CO)C(=O)c2cc(N(C)C)ccc2O[C@@H](C)CCCCO[C@H]1CN(C)Cc1ccc(C(F)(F)F)cc1,inactive: 0.969
5,C#CCN1C(=O)N(C(=O)c2ccccc2)[C@@H]2c3ccccc3O[C@@]1(COCc1ccc(OC)cc1)[C@@H]2CO[Si](C)(C)C(C)(C)C,inactive: 1.01
6,C[C@H]1CN([C@@H](C)CO)C(=O)c2cc(C#CC3(O)CCCC3)cnc2O[C@H]1CN(C)C(=O)CN(C)C,inactive: 0.988
7,Cc1noc(C)c1S(=O)(=O)N(C)C[C@@H]1Oc2ccc(NS(=O)(=O)c3cccs3)cc2CC(=O)N([C@@H](C)CO)C[C@@H]1C,inactive: 1.01
8,C[C@H](CO)N1C[C@H](C)[C@H](CN(C)CC2CCCCC2)OCCCC[C@H](C)Oc2ccc(NC(=O)Nc3cccc4ccccc34)cc2C1=O,inactive: 0.981
9,C[C@@H]1CCCCO[C@@H](CN(C)C(=O)CCC(F)(F)F)[C@H](C)CN([C@@H](C)CO)C(=O)c2cc(NC(=O)Cc3ccccc3)ccc2O1,inactive: 1.02
10,C[C@@H]1CCCCO[C@@H](CN(C)C(=O)NC2CCCCC2)[C@H](C)CN([C@@H](C)CO)C(=O)c2cc(NS(=O)(=O)c3cccs3)ccc2O1,inactive: 0.982
11,C[C@H]1CN([C@@H](C)CO)C(=O)Cc2cc(NC(=O)Nc3ccc(C(F)(F)F)cc3)ccc2O[C@@H]1CN(C)Cc1ccc(C(=O)Nc2ccccc2N)cc1,inactive: 1.01
12,Nc1ncnc2c1c(I)cn2[C@@H]1O[C@H](CO)[C@@H](O)[C@H]1O,inactive: 0.974
13,C[C@H]1CCCCO[C@H](CN(C)C(=O)Nc2ccc(C(F)(F)F)cc2)[C@@H](C)CN([C@@H](C)CO)C(=O)c2cc(NS(C)(=O)=O)ccc2O1,inactive: 0.93
14,C=CCNC(=O)[C@H]1[C@@H]2C(=O)O[C@@H](c3ccccc3)[C@@H](c3ccccc3)N2[C@@H](c2ccc(O)cc2)[C@]12C(=O)Nc1ccc(C#CC3=CCCCC3)cc12,inactive: 1.05
15,Cc1noc(C)c1NC(=O)Nc1cccc2c1O[C@H](CN(C)Cc1ccc(C(F)(F)F)cc1)[C@H](C)CN([C@@H](C)CO)C2=O,inactive: 0.98
16,C[C@H](CO)N1C[C@H](C)[C@H](CN(C)Cc2ccc(-c3ccccc3)cc2)Oc2ccc(NC(=O)Cc3cn(C)c4ccccc34)cc2CC1=O,inactive: 1.02
17,CC[C@H]1CN(C)N1C(=O)[C@H]1CCCO1,inactive: 0.927
18,COc1ccc2c3c(n(c2c1)C)[C@@H](CO)N(CC1CCOCC1)C[C@]13CCN(CC1)C(=O)Cc1cccnc1,inactive: 1.01

row,Compound,relative growth
1,C[C@H](CO)N1C[C@H](C)[C@H](CN(C)C(=O)Nc2ccccc2)OCCCC[C@H](C)Oc2ccc(NS(=O)(=O)c3ccccc3)cc2C1=O,inactive: 1.03
2,CC(C)NC(=O)N(C)C[C@@H]1OCCCC[C@H](C)Oc2ccc(NC(=O)C3CCCCC3)cc2C(=O)N([C@@H](C)CO)C[C@@H]1C,inactive: 0.999
3,C[C@@H]1CN([C@H](C)CO)C(=O)Cc2cc(NC(=O)Nc3ccc(C(F)(F)F)cc3)ccc2O[C@H]1CN(C)Cc1ccc(Oc2ccccc2)cc1,inactive: 0.881
4,COc1cccc(OC)c1C(=O)O[C@H]1[C@@H]2OC(=O)[C@@H](Cc3ccc4ccccc4c3)C/C=C/C[C@H](Cc3ccc4ccccc4c3)C(=O)O[C@H]2[C@@H](OC)O[C@@H]1CO,inactive: 1.02
5,C[C@@H]1CN([C@H](C)CO)C(=O)c2cc(NC(=O)NC3CCCCC3)ccc2O[C@@H](C)CCCCO[C@H]1CN(C)C(=O)Nc1ccccc1,inactive: 1.02
6,COC(=O)CNC(=O)c1ccc(S(=O)(=O)N2CCOCC2)cc1,inactive: 0.998
7,CN(C)CCCCNC(=O)[C@H]1C[C@H]2C(=O)N[C@@H](CCCC[N+](C)(C)C)C(=O)N2[C@H]1c1cccc(OCCO)c1,inactive: 1
8,C[C@@H]1CN([C@@H](C)CO)C(=O)c2cccc(NC(=O)c3ccncc3)c2O[C@@H]1CN(C)Cc1ccncc1,inactive: 0.992
9,CC(C)(N)C(=O)N[C@H](COCc1ccccc1)C(=O)N1CCC2(CC1)CN(S(C)(=O)=O)c1ccccc12,inactive: 1
10,O=C(C[C@@H]1CC[C@@H]2[C@H](COC[C@H](O)CN2C(=O)c2ccncc2)O1)NC1CCC1,inactive: 1.01
11,C[C@H](CO)N1C[C@H](C)[C@H](CN(C)C(=O)Nc2ccc3c(c2)OCO3)Oc2ccc(NC(=O)CCN3CCOCC3)cc2C1=O,inactive: 0.977
12,C[C@@H]1CN([C@H](C)CO)C(=O)c2cc(NC(=O)CCN3CCOCC3)ccc2O[C@H]1CN(C)Cc1ccncc1,inactive: 0.994
13,C[C@H](CO)N1C[C@H](C)[C@H](CN(C)C(=O)c2ccncc2)OCCCC[C@H](C)Oc2ccc(NS(=O)(=O)c3ccc(Cl)cc3)cc2C1=O,inactive: 0.97
14,C[C@@H]1CCCCO[C@H](CN(C)C(=O)NC2CCCCC2)[C@@H](C)CN([C@@H](C)CO)C(=O)c2cc(NC(=O)CCC(F)(F)F)ccc2O1,inactive: 0.972
15,COCC(=O)Nc1ccc2c(c1)C(=O)N(C)C[C@@H](OC)[C@@H](C)CN(Cc1ccccc1OC)[C@H](C)CO2,inactive: 0.985
16,Cc1noc(C)c1S(=O)(=O)Nc1ccc2c(c1)CC(=O)N([C@H](C)CO)C[C@@H](C)[C@@H](CN(C)Cc1ccc(-c3ccccc3)cc1)O2,inactive: 0.979
17,COc1ccc(S(=O)(=O)N(C)C[C@H]2Oc3cc(C#CC4CCCC4)ccc3S(=O)(=O)N([C@H](C)CO)C[C@H]2C)cc1,inactive: 1.04
18,CC(=O)N1CCC(C(=O)N2CCC(n3cc(C(C)(C)N)nn3)CC2)CC1,inactive: 1.02
